From paper PMC11911400, “Mechanism of ASF1 engagement by CDAN1” (Nature Communications, 2025) come the findings set out here.

Chains of the proteins cited; added tags and fusions are not shown. Lines headed by an entry give the natural chain unless they say otherwise; changes in a name come on top. A line that says so, or that is headed by a name, gives the form on record, which may keep a tag or linker.
UniProt Q9Y294: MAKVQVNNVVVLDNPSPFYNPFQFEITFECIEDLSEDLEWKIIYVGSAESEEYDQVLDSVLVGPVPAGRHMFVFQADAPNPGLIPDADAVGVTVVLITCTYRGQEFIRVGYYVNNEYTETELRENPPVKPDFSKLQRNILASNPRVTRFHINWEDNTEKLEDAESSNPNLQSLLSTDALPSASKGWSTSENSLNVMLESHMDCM
FLAG-ASF1A N > B (ASF1A with the NTD of ASF1B) (Q9Y294, form named): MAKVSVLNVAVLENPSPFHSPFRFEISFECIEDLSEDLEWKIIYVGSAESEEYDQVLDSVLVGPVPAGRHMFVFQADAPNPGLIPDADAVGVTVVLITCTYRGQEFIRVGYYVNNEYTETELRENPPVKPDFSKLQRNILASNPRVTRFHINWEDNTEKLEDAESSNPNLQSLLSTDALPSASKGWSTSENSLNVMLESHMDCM
UniProt Q9NVP2: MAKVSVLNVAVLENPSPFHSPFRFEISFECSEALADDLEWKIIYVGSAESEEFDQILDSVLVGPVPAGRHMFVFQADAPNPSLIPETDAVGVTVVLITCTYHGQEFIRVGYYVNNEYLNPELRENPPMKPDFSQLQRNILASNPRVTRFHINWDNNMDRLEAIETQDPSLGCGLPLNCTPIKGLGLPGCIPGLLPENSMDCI
FLAG-ASF1B N > A (ASF1B with the NTD of ASF1A) (Q9NVP2, form named): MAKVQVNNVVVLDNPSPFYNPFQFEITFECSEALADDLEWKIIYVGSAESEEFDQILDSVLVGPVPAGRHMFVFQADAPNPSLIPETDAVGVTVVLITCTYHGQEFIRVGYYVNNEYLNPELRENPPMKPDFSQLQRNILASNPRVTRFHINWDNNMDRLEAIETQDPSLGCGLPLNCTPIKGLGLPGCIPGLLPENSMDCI

Positions count from the first letter of the chain named. Results are given in words; binding and its absence hold for the method and conditions named. In cells and extracts the contact can be indirect. Some results given as binding are weak or reduced against the parent protein; the word gives no strength.

The target in assay [1] is T1, HMHA2* BDA2* ST-CDAN1 (human) (UniProt Q8IWY9).
T1 sequence: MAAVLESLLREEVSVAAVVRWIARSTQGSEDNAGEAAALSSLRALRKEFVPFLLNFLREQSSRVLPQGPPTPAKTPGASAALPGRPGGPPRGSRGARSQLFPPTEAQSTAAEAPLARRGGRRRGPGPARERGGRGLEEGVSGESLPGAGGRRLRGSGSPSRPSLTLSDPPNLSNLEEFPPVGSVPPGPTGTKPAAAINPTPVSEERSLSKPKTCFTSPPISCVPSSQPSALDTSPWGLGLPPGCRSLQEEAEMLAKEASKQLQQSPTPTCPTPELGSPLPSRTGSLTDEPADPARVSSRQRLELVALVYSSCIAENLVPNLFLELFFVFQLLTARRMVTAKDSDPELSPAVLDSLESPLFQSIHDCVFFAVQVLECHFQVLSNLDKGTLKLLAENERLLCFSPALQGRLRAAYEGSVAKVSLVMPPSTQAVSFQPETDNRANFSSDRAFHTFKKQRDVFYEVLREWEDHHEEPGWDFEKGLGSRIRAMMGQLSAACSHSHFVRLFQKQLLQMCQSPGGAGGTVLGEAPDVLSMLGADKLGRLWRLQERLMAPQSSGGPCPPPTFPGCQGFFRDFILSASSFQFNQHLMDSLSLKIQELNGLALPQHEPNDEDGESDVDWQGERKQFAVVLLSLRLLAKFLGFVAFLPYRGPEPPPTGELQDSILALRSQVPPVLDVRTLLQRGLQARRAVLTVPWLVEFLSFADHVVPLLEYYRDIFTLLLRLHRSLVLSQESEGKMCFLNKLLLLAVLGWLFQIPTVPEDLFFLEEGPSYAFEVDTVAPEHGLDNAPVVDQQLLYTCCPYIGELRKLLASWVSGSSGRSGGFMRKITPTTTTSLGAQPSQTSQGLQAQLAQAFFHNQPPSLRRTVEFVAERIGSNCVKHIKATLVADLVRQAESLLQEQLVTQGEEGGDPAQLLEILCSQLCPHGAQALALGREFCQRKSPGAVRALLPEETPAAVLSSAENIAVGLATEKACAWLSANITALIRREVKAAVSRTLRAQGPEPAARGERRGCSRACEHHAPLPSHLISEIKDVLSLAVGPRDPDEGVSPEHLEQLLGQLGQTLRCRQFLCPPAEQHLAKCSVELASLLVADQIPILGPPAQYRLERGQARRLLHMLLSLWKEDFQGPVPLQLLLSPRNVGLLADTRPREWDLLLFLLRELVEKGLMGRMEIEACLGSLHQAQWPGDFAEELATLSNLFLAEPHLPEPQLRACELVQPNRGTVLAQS
Briefly: pull-down; Strep-Tactin pulldown of ST-CDAN1 variants co-transfected with FLAG-tagged ASF1A or ASF1B variants in Flp-In 293 T-REx cells; immunoblotting; IP buffer with 1% Triton X-100, 1 hr at 4 °C.

The target in assay [2] is T2, Strep-CDAN1 HMHA1* (R541A/R544A/R548A) (human) (UniProt Q8IWY9).
T2 sequence: T1 sequence with A194S, A195R, A196R, A251R, A255R, A258R, R541A, R544A, R548A
The assay is described as above.

Turning to “FLAG-ASF1A N > B (ASF1A with the NTD of ASF1B) (from UniProt Q9Y294 1-204)”, the binding entry is given as “binds” in assay [1] and “no binding” in assay [2].

On to “FLAG-ASF1B N > A (ASF1B with the NTD of ASF1A) (from UniProt Q9NVP2 1-202)”, for which the binding result in assay [1] and in assay [2] was “binds” in each case.

For “FLAG-tagged ASF1A (F-ASF1A) (from UniProt Q9Y294 1-204)”, the binding entry in assay [1] and in assay [2] was “binds” throughout.

Turning to “FLAG-tagged ASF1B (F-ASF1B) (from UniProt Q9NVP2 1-202)”, the binding entry in assay [1] was “binds”; in assay [2] it was “no binding”.
